# Experimental data reported in PMC4336329 (PLoS ONE, 2015).
# About 14,000 (4.5%) of roughly 310,000 compounds showed an effect of 50% or more. The effect is printed as a negative number. This is one part of the list.
# Biological target: human ether-à-go-go-related gene (hERG) potassium channel (human, UniProt Q12809)
# Experiment: primary screen, population patch clamp on CHO cells stably expressing hERG
# 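Note: peak tail current of the secondary pulse compared with the same well before compound.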
# human ether-à-go-go-related gene (hERG) potassium channel, sequence (Q12809 whole entry, looked up): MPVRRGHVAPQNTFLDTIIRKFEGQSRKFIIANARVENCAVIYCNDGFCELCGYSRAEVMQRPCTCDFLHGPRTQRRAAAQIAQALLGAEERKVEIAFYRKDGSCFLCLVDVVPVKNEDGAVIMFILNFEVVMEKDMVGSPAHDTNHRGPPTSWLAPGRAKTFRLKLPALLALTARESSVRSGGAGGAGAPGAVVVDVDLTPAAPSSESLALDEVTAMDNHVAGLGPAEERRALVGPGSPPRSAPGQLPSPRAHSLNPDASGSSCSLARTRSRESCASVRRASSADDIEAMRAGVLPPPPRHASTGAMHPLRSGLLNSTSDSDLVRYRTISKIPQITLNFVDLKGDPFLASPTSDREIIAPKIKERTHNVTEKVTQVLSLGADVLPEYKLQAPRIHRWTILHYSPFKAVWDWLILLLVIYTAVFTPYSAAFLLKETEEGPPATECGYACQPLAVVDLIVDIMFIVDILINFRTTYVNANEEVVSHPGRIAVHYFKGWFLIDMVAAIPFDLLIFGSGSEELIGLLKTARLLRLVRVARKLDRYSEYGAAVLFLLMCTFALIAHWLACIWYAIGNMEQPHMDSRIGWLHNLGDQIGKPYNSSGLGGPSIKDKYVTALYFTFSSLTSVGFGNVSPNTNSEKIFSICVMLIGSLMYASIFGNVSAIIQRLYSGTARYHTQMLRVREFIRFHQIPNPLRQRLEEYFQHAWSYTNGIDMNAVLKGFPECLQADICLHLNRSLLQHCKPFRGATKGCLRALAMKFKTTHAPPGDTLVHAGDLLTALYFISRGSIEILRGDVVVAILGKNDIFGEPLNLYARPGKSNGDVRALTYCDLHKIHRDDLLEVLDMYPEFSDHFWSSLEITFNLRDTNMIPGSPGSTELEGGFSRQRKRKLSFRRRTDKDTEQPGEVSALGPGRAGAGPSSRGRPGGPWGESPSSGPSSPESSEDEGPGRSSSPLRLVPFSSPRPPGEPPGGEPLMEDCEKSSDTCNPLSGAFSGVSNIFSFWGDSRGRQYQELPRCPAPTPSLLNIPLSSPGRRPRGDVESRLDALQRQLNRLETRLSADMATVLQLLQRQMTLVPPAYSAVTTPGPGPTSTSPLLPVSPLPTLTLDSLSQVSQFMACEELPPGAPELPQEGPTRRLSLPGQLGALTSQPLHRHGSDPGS
row,Structure (SMILES),"hERG current change (%, negative = inhibition) at 10uM [%]"
1,CCCCn1c(N)c(N(CCOC)C(=O)c2cccc(S(=O)(=O)N3CCCCCC3)c2)c(=O)[nH]c1=O,-2.57
2,C/C(=N\Nc1ccc(S(N)(=O)=O)cc1[N+](=O)[O-])c1ccccc1O,8.64
3,O=C(COC(=O)c1ccc2ncsc2c1)Nc1ccc(Cl)cc1,-1.73
4,CN1CCN(C(=O)c2ccc3c(c2)S(=O)(=O)c2ccccc2C3=O)CC1,-35.9
5,Cc1ccc(O)c(CNc2ccc(S(=O)(=O)Nc3nccs3)cc2)c1,11.9
6,Cc1c(C#N)c2ccccc2n1CC(=O)NCCc1c[nH]c2ccccc12,-2.5
7,CC(=O)N(C)c1ccc(NC(=O)Cc2cccs2)cc1,14.1
8,Cc1ccc(OCCC(=O)OCC(=O)C(C)(C)C)cc1,-3.71
9,O=[N+]([O-])c1cc([N+](=O)[O-])c2cccnc2c1O,18.2
10,CCC(C)NC(=O)CCn1c(-c2ccccc2)cc(C(C)=O)c1C (stereo not shown),21.5
11,Cc1ccc(CNc2cnccn2)cc1,-19
12,Cc1ccc(OCCOCCn2cnc3ccccc3c2=O)c([N+](=O)[O-])c1.O=C(O)C(=O)O,-42.9
13,Cn1cc(CN2CCC[C@H]2CO)c(-c2cccc(Cl)c2)n1,-15.1
14,CN(C)S(=O)(=O)c1ccc(C(=O)NCC(=O)N/N=C/c2ccco2)cc1,13.2
15,CCCn1c(C)cc(C(=O)COc2ccc(C)nc2[N+](=O)[O-])c1C,-17
16,CN1CCN(S(=O)(=O)c2cnc(Cl)c(Br)c2)CC1,10.5
17,Cc1nn(Cc2ccccc2)c2sc(C(=O)NCc3cccnc3)cc12,-46.9
18,CCCCC(=O)NC1(C(F)(F)F)NC(=O)N(Cc2ccccc2)C1=O (stereo not shown),-5.37
19,CCOc1cccc(C(=O)Nc2nccs2)c1,-3.11
20,Cc1cc(S(=O)(=O)Nc2ccc(C(=O)NCCCN3CCOCC3)cc2)ccc1F,3.07
21,C/C(=N\NC(=S)Nc1ccccc1C)c1cc2ccccc2o1,5.17
22,O=C(c1ccc2ccccc2n1)N1CCN(c2ccccc2O)CC1,-0.197

row,Structure (SMILES),"hERG current change (%, negative = inhibition) at 10uM [%]"
1,CN=C(Nc1ccc(Cl)cc1)c1cccc(C(F)(F)F)c1,9.84
2,Cc1ccc(S(=O)(=O)NNC(=O)c2ccc(O)cc2)cc1,2.9
3,CC(=O)c1c(Nc2ccc3c(c2)OCCO3)oc(C)cc1=O,6.91
4,COC(=O)c1ccc(C)c(NC(=O)CCSc2ccc(Cl)cc2)c1,-0.245
5,O=C(CSc1nc2ccsc2c(=O)n1Cc1ccccc1)NCC1CCCO1 (stereo not shown),-25.7
6,Cc1cc(C(=O)NCC(=O)OC(C)C(=O)N2CCOCC2)ccc1[N+](=O)[O-] (stereo not shown),-3.98
7,Cc1ccc(C)c2[nH]c(=O)c(C(c3nnnn3Cc3ccccc3)N3CCc4ccccc4C3)cc12 (stereo not shown),-9.12
8,CN1Cc2c(N3CCOCC3)nc(SCc3ccccc3)c(C#N)c2CC1(C)C,-12.9
9,COc1ccc2ccccc2c1/C=N\NC(=O)c1cccnc1,3.06
10,CC(Sc1nnc(Cc2cccs2)n1C1CCCCC1)C(N)=O (stereo not shown),-9.06
11,COC(=O)C(Cc1cnc(Cl)s1)(C(=O)OC)c1ccc([N+](=O)[O-])cc1[N+](=O)[O-],-28.5
12,O=C(Nc1cccc(Cl)c1)c1csc(-c2ccccc2)n1,31.4
13,CC(C)CC(=O)NC(=S)Nc1ccc(S(=O)(=O)Nc2nccs2)cc1,14.1
14,COc1ccccc1NC(=O)N1CCCC(C(=O)Nc2cccc(C)c2C)C1 (stereo not shown),12.7
15,O=C(Cn1nc(C(=O)O)c2ccccc2c1=O)Nc1ccccc1C(F)(F)F,-21.6
16,CN(C)C(=O)Oc1ccc(-c2nnco2)cc1,7.11
17,CC(C)CNC(=O)C1c2ccccc2Oc2ccccc21,15.4
18,N#C/C(=C(/O)COC(=O)c1cccnc1Cl)c1nc2ccccc2[nH]1,25.6
19,Cc1cc(S(=O)(=O)NCC(c2ccc(F)cc2)N2CCN(C)CC2)ccc1F (stereo not shown),-68.4
20,CCOC(=O)C1CCN(S(=O)(=O)Cc2ccccc2)C1=O (stereo not shown),4.99
21,NS(=O)(=O)c1ccc(NC(=S)NCC2CCCO2)cc1 (stereo not shown),8.74
22,COc1ccc(OCC(=O)Nc2cccc(C(C)=O)c2)cc1,-7.29

row,Structure (SMILES),"hERG current change (%, negative = inhibition) at 10uM [%]"
1,CCCc1nnc(SCC(=O)Nc2ccc3c(c2)OCCO3)n1CCOC,30.9
2,Cc1cccc(NCc2ccccc2)c1,5.29
3,COC(=O)CCc1c(C)[nH]c(C(=O)OCc2ccccc2)c1C,-13.3
4,O=C1C2C3c4ccccc4C(c4ccccc43)C2C(=O)N1CN1CCOCC1 (stereo not shown),-1.38
5,Cc1ccc(/C=C/C(=O)Nc2ccc([N+](=O)[O-])c(NC(=O)/C=C/c3ccc(C)o3)c2)o1,17.4
6,Cc1[nH]c2ccccc2c1/C=N/NC(=S)NCc1ccccc1,22.1
7,Cc1ccc(C(=O)NNc2ncnc3ccccc23)cc1,9.43
8,CCC(=O)O[C@]1(C(=O)CCl)[C@@H](C)C[C@H]2[C@@H]3CCC4=CC(=O)C=C[C@]4(C)[C@@]3(F)[C@@H](O)C[C@@]21C,12.2
9,COc1ccccc1NC(=O)CCS(=O)(=O)c1ccccc1,12.7
10,COc1ccccc1Nc1nnc(SCC(=O)NC2CCCC2)s1,-0.29
11,COc1ccc(N(C(=O)c2cnccn2)C(C(=O)NC2CCCCC2)c2ccc(O)cc2)cc1 (stereo not shown),7.41
12,CCC(=O)Oc1ccc(C(=O)Nc2ccc([N+](=O)[O-])cc2)cc1,13
13,COc1ccc(CNC(=O)C(=O)c2cn(CC(=O)N3CCCC3)c3ccccc23)cc1,3.02
14,O=C(c1sccc1-c1ccccc1)N1CCN(S(=O)(=O)c2ccccc2)CC1,-6.73
15,Cc1cccnc1NC(=O)c1ccc(OCc2c(C)noc2C)cc1,-6.78
16,Cc1ccc(-n2c(Cn3cnc4ccccc43)nnc2SCC(=O)O)cc1,-1.94
17,O=C(N=C1SC2CS(=O)(=O)CC2N1Cc1ccc(F)cc1)C1CCCO1 (stereo not shown),-5.58
18,COc1ccc(Cn2c(=O)sc3ccccc32)cc1OC,-20.1
19,COc1ccc(N2CCN(C(=O)Cc3ccc(C)cc3)CC2)cc1,-6.07
20,O=C(CC12CC3CC(CC(Br)(C3)C1)C2)NC1CCCC1,-16.5
21,CCn1cc(C(=O)NCc2ccco2)c(=O)c2cc(S(=O)(=O)N3CCCC3)ccc21,-4.37
22,CCOC(=O)c1cn2nc(-c3ccc(OCC)cc3)cc2nc1C1CCN(C(=O)OC(C)(C)C)CC1,6.63

row,Structure (SMILES),"hERG current change (%, negative = inhibition) at 10uM [%]"
1,O=C(NC1CCCC1)C(c1ccccn1)N(C(=O)c1csnn1)C1CC1 (stereo not shown),10.8
2,CC(N=Cc1c(O)c2ccccc2oc1=O)C(=O)O (stereo not shown),15.7
3,COCCCNC(=S)N(CCCO)Cc1cc2cc3c(cc2[nH]c1=O)OCO3,16.4
4,O=[N+]([O-])c1ccc(N2CCN(S(=O)(=O)c3ccccc3[N+](=O)[O-])CC2)cc1N1CCc2ccccc2C1,-2.23
5,CCn1c(-c2ccccc2)c(C(=O)CC#N)c2ccccc21,15.2
6,O=C(CCC1CCCCC1)Nc1c[nH]c(=O)[nH]c1=O,0.491
7,CCOC(=O)c1sc2nc(N3CCOCC3)c3c(c2c1N)CCC3,18.5
8,COc1ccc(Cl)cc1S(=O)(=O)NCc1nc2nc(C)cc(C)n2n1,14.5
9,O=C(Nc1ccc(F)cc1F)c1c(C(F)(F)F)ccnc1Oc1ccc(Cl)cc1,18.4
10,CNc1oc(-c2ccccc2)nc1S(=O)(=O)c1ccc(C)cc1,12.7
11,COc1ccc(C)cc1S(=O)(=O)N(CC(=O)NCc1ccc(Cl)cc1)Cc1ccccc1,8.35
12,COC(=O)c1ccc(COC(=O)c2ccc(CS(=O)(=O)c3ccc(C)cc3)cc2)cc1,22.5
13,O=P(O)(c1ccc(Cl)cc1)c1ccc(Cl)cc1,4.68
14,Cc1ccccc1CN1CCCC(C(=O)N2CCCCC2)C1.O=C(O)C(=O)O (stereo not shown),11.2
15,Cc1cc(C(=O)CSc2nn(-c3ccccc3)c(=S)s2)c(C)n1Cc1ccco1,12
16,CC(=O)N(Cc1nc2sc(C)c(C)c2c(=O)[nH]1)C1CCCC1,21.8
17,COc1ccccc1N1CCN(/N=C/c2cccc(OC)c2OC)CC1,2.89
18,Cc1occc1C(=O)NC1CCCCCC1,6.63
19,COc1ccccc1-n1ccnc1SCC(=O)NCc1ccco1,7.5
20,Cc1ccc(C(=O)NC2CCCCC2)cc1S(=O)(=O)N1CCCC1,-18.5
21,CCn1c(SCC(=O)Nc2cc(C)on2)nnc1-c1c[nH]c2ccccc12,-32.7
22,CCOC(=O)CNC(=O)c1ccc(SCC)cc1,10.2
